From publication PMC4336329 (PLoS ONE, 2015)
Out of some 310,000 compounds screened, about 14,000 (4.5%) showed an effect of 50% or more. Effects have a minus sign here. The list shows a part of the results.

Biological target: human ether-à-go-go-related gene (hERG) potassium channel (human, UniProt Q12809)
Assay: primary screen, population patch clamp on CHO cells stably expressing hERG
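Note: peak tail current of the secondary pulse compared with the same well before compound.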

Chain of human ether-à-go-go-related gene (hERG) potassium channel (Q12809 whole entry, looked up): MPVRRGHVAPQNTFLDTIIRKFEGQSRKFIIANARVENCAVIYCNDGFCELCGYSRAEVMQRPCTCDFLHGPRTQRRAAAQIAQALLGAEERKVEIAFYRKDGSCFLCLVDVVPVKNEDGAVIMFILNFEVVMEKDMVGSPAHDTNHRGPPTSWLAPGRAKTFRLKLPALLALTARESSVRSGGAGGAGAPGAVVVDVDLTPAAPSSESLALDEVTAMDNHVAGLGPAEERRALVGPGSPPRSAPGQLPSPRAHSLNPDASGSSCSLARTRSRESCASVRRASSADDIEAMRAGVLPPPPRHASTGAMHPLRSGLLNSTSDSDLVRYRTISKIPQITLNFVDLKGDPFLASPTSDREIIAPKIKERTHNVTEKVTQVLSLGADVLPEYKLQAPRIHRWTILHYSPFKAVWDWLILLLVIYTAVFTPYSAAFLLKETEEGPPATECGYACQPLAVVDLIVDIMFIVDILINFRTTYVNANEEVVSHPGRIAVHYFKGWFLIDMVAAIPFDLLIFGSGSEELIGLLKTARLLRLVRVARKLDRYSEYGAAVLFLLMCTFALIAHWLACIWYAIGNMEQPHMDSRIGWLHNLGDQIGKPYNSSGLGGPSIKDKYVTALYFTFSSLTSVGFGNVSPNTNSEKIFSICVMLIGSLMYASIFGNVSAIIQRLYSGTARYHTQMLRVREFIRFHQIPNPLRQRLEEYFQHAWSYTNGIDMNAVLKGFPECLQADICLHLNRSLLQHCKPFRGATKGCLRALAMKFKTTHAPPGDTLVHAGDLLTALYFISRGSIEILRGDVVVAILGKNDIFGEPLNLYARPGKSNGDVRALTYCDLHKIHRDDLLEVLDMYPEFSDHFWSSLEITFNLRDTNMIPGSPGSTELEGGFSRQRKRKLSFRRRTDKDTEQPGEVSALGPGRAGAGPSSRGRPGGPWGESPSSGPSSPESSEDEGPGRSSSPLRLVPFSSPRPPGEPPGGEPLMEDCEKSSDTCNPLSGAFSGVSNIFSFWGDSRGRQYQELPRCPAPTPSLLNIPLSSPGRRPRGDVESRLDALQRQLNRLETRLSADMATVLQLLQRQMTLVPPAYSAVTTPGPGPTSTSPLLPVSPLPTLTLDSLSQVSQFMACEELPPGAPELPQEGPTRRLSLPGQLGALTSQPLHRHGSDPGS

Compound	hERG current change (%, negative = inhibition) at 10uM
CC1CCCCN1C(=O)c1cc2nc(-c3ccccc3)cc(-c3ccccc3)n2n1 (centres unmarked)	-14.5%
O=C(CCCN1C(=O)c2ccccc2C1=O)Nc1ccccn1	-8.39%
COCc1cc(C)nc(SCC(=O)NC2CCCCC2C)c1C#N (centres unmarked)	17%
CCOc1ccccc1CSc1nc2ccccc2[nH]1	-15.2%
COc1ccc(S(=O)(=O)N2CCCCC2)cc1NC(=S)Nc1ccccc1	7.79%
COC(=O)C(C)N(C(=O)c1cccc(Cl)c1)c1c(C)cccc1C (centres unmarked)	15%
CC(=O)c1cccc(NC(=O)C2CCN(S(=O)(=O)c3ccc(C)cc3)CC2)c1	4.47%
COc1ccccc1-n1c(SCC(=O)Nc2ccc(NC(C)=O)cc2)nc2c([nH]c3ccccc32)c1=O	7.94%
NS(=O)(=O)c1ccc(CCNC(=O)COC(=O)C2CCC2)cc1	12%
O=C(C1CCCO1)N1CCN(C(=S)Nc2cc(F)cc(F)c2)CC1 (centres unmarked)	-7.26%
CCOC(=O)c1cccc(NS(=O)(=O)c2c(C)[nH]c(C)c2C(=O)N2CCCC2)c1	11%
CCCCC(CC)COCCCN=Cc1c(O)[nH]c(=S)[nH]c1=O (centres unmarked)	-8.48%
CC(=O)Nc1ccc(C(=O)OCC(=O)Nc2ccccc2F)cc1	14.2%
Nc1ccc(C(=O)c2cccs2)cc1[N+](=O)[O-]	17%
CCc1nccn1S(=O)(=O)c1cccc([N+](=O)[O-])c1	9.64%
O=C(COc1ccccc1F)Nc1ccc(S(=O)(=O)NCc2ccco2)cc1	-10.3%
CCOC(=O)C(=O)NC(C)c1ccccc1 (centres unmarked)	8.55%
CC(C)c1nnc(NC(=O)c2sc3ccccc3c2Cl)s1	-4.6%
Cc1c(CCOC(=O)c2cccc([N+](=O)[O-])c2)sc[n+]1CC(=O)c1ccccc1.[Br-]	-51.1%
CCOC(=O)c1c(NC(=O)CSc2nnc(C)c(=O)[nH]2)sc(C)c1C	22.9%
O=C(O)CCSCCCN1C(=O)c2cccc3cccc(c23)C1=O	4.17%
CC(=O)c1cc(C#N)c(SCc2ccccn2)nc1C	4.21%
O=C(Cn1cnc2c(nnn2Cc2ccc(F)cc2)c1=O)NCC1CCCO1 (centres unmarked)	1.61%

Compound	hERG current change (%, negative = inhibition) at 10uM
Cc1c(Br)c([N+](=O)[O-])nn1CC(=O)Nc1nccs1	0.945%
Cc1cc2n(n1)SC(Nc1cc(Cl)ccc1Cl)N2 (centres unmarked)	10.2%
Cn1c(SCC(=O)NCc2ccc3c(c2)OCO3)nnc1-c1cccs1	-17.1%
Cc1ccc(-c2nnc(N3CCOCC3)c3ccccc23)cc1S(=O)(=O)NCc1cccnc1	-24.2%
O=C(OCC#CCSc1nnc(-c2ccc([N+](=O)[O-])cc2)o1)c1cccs1	-10.1%
CCC(C)NC(=O)C1c2ccccc2Oc2ccccc21 (centres unmarked)	10.2%
Cc1cc(C)c(S(=O)(=O)c2cc(F)ccc2C)c(=O)[nH]1	18.1%
O=C(N/N=C\c1cccnc1)C1c2ccccc2Oc2ccccc21	0.415%
CCCSc1oc(-c2ccco2)nc1S(=O)(=O)c1ccc(C)cc1	10.2%
CC(C)NC(=O)NC(=O)COC(=O)c1ccc(NC(=O)CC#N)cc1	3.15%
Cc1ccc(C(=O)c2coc3ccc(O)cc23)cc1	23.2%
O=C(CN1C(=O)NC2(CCCC2)C1=O)OCc1ccc(Cl)cc1Cl	-20.9%
COC(=O)Cc1ccc2oc(-c3cccnc3)nc2c1	19.8%
O=C(NC1CCN(Cc2ccc3ccccc3c2)CC1)c1ccccc1	-66.3%
O=C(NS(=O)(=O)c1ccc(Cl)cc1)c1ccccc1	2.47%
Cc1[nH]c2ccccc2c1C(=O)/C=C\c1ccccc1Cl	11.6%
CCCCNC(=O)CSc1nc2cc(OC)c(OC)cc2c(=O)n1Cc1ccc(OC)cc1	-12.1%
O=C(Nc1ccnn1C1CCN(Cc2cccc(F)c2F)CC1)C1CCCC1	-23.2%
CN(Cc1ccccc1)S(=O)(=O)c1ccc(C(=O)Nc2nnc(C3CC3)o2)cc1	-41.6%
COc1ccc(N(CC(=O)N2CCN(Cc3ccccc3)CC2)S(C)(=O)=O)cc1OC	1.4%
O=C(C1=C[C@H](c2ccc(C(F)(F)F)cc2)C[C@H](OCc2ccc(CO)cc2)O1)N1CCN(Cc2ccccc2)CC1	-15.2%
CN(CC(=O)Nc1ccccc1F)S(=O)(=O)c1ccc2c(c1)n(C)c(=O)c(=O)n2C	-12.5%
CCN1CC2(COC(=O)c3ccccc3N)CCC(OC)C34C5CC6C(OC)CC(O)(C5C6OC)C(O)(C(OC)C23)C14 (centres unmarked)	-11.5%

Compound	hERG current change (%, negative = inhibition) at 10uM
CNC(=O)[C@@]1(C)C=C[C@@H](Cc2ccccc2)N1C(=O)OC	17.7%
COc1ccc(CCNC(=O)[C@@H](NC(=O)N2CCn3c2nc2ccccc23)C(C)C)cc1OC	-14.3%
CCOC(=O)N1CCC(NCCNC(=O)c2ccccc2)CC1.Cl	6.13%
CCC(C)NCCOCCOc1ccccc1-c1ccccc1.O=C(O)C(=O)O (centres unmarked)	-37.7%
Cc1cc(C(=O)NCC(=O)Nc2c(C)cccc2C)c(C)o1	12.5%
COc1ccc(-n2cc(CNCCc3cnc[nH]3)c(-c3cccc(F)c3)n2)cc1	-28.9%
Cn1c(COc2nnc(-c3ccc(Cl)cc3)c3ccccc23)nc2ccccc21	5.78%
CCOC(=O)C(Cc1ccccc1)C(=O)Nc1cccc2ccccc12 (centres unmarked)	-11.8%
Cc1cccc(NC(=O)CSc2nnc(-c3cc(C)n(-c4ccccc4)c3C)o2)c1C	6.46%
COc1ccc(-c2csc3ncn(-c4ccccc4)c(=O)c23)cc1OC	0.363%
O=C(CN1CCOCC1)Nc1cccc(C(=O)Nc2cccc(C(F)(F)F)c2)c1	-40.1%
CCC(c1nnc(SCC(=O)N2CCOCC2)n1C1CCCCC1)N(C)C (centres unmarked)	-7.08%
COc1cc(OC)nc(S(C)(=O)=O)n1	2.01%
COc1ccccc1NC(=O)Oc1cccc(OC(=O)c2ccccc2)c1	11.7%
CC(C)CCOP(N)(=O)Oc1ccccc1Cl (centres unmarked)	18.1%
CCC[N+]1(CC#CCC(c2ccccc2)c2ccccc2)CCCCC1.[Br-]	-66.7%
O=C(Nc1ccc(S(=O)(=O)Nc2cnc3ccccc3n2)cc1)c1ccc([N+](=O)[O-])cc1Cl	-1.11%
COc1ccccc1C(=O)NC(=O)COC(=O)c1ccc([N+](=O)[O-])cc1Cl	18.1%
Cc1nnc(Nc2ccccc2F)s1	-0.816%
C/C=C(/C)C(=O)Nc1cccc(C2=NOC3(C2)C[C@@H](C(N)=O)N(C(=O)c2ccc(OC)cc2)C3)c1 (some centres unmarked)	8.51%
O=C(c1ccc(F)cc1F)N1CCN(c2ncccn2)CC1	10.6%
COc1ccc(Nc2ccc([N+](=O)[O-])cn2)cn1	6.26%
CCOC(=O)c1ccc(NC(=S)N2CCN(CCO)CC2)cc1	19%

Compound	hERG current change (%, negative = inhibition) at 10uM
COc1ccc(OC)c(S(=O)(=O)N2CCC(C(=O)Nc3ccccc3)CC2)c1	-14.1%
O=C(C1CCC(N2C(=O)C3CC=CCC3C2=O)CC1)N1CCCCC1 (centres unmarked)	10.7%
Cc1ccc(C2(CCN)CCOC(C(C)C)C2)cc1 (centres unmarked)	17%
O=C(/C=C/c1ccccc1[N+](=O)[O-])N1CCN(C(=O)c2ccco2)CC1	-45.6%
C=CCc1ccc(OCCOCCOc2cccc3ccc(C)nc23)c(OC)c1.O=C(O)C(=O)O	-61.6%
FC(F)(F)c1cnc(NNC(=S)Nc2cccnc2)c(Cl)c1	26.3%
O=C(NCCN1CCOCC1)c1ccccc1Cl	18.3%
CC(=O)N1N=C(c2cccs2)CC1c1cccs1 (centres unmarked)	5.99%
CC(=O)OC1=C(C#N)Cn2ccc3cccc1c32	2.56%
CCN1C(=O)CC(N2CCC(C(=O)N3CCCCCC3)CC2)C1=O (centres unmarked)	5.76%
O=C(CN1CCC(NC(=O)c2cccc(F)c2)CC1)Nc1ccc(Br)cc1	-73%
O=S(=O)(NCCc1ccncc1)c1ccc(Br)cc1	-21.5%
C/C(=N\NC(N)=O)c1cc(Cl)cc(Cl)c1O	15.4%
O=C(/C=C/Nc1ccc(S(=O)(=O)Nc2ncccn2)cc1)c1ccc(Cl)c(Cl)c1	-3.62%
C=CCC(CC=C)(NC(=O)c1ccccc1C)c1ccccc1	13.5%
CC1CCCCC1NC1=NCCS1 (centres unmarked)	27.7%
Cc1cc(C(=O)NCCN2CCCCC2C)n(-c2ccccc2)n1 (centres unmarked)	-7.89%
O=C(NNC(=O)C1CCCN(c2ncccn2)C1)c1ccc(F)cc1 (centres unmarked)	5.63%
NNc1nc2ccccc2nc1C(F)(F)F	15.9%
CCOC(=O)Cn1ncc2c(=O)oc3ccccc3c21	-0.743%
